Measurements reported in PubChem BioAssay (NCATS).
“And” between values parts separate entries of the source, which are not always exact repeats. Equal entries are not always repeated. This is one part of the list. These are further read-outs of the screen, such as a control signal, another cell line or another target. No call is given for them. Potencies come from curve fits of mixed quality, noted in brackets.

Assay: qHTS drug screen for cell cycle checkpoint inhibitors in PARPi-resistant BRCA-mutant ovarian cancer cell lines. (AID 1963452)
Details: PEO1/OlaR viability, CellTiter-Glo luminescence, 96 h; measured here: PEO1 parental viability
Method in brief: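 PEO1, PEO4 and PEO1/OlaR ovarian cancer cells, 600 per well, exposed 96 h at 37C to a dilution series. Viability read by CellTiter-Glo luminescence, normalized to DMSO and empty wells; activity summarized as Z-AUC.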
Tags tell the direction and shape of the fitted curve.

**Q.** Which AC50 does the source give for `COc1cc(OC)c(/C=C/S(=O)(=O)Cc2ccc(OC)c(NCC(=O)O)c2)c(OC)c1` here?
**A.** 0.0155 µM [falling, full curve]

**Q.** Which AC50 does the source give for `O=c1c(-n2ccnn2)c[nH]n1-c1cc(N2CCOCC2)ncn1` here?
**A.** 27.5 µM [falling, single point]

**Q.** Which AC50 does the source give for `CCCCNc1ncc2c(-c3ccc(CN4CCN(C)CC4)cc3)cn(C3CCC(O)CC3)c2n1` (stereo unspecified) here?
**A.** 4.9 µM [falling, full curve] and 13.8 µM [falling, partial curve, poor fit]

**Q.** With `COc1cc(=C2C=c3ccccc3=N2)[nH]/c1=C/c1[nH]c(C)cc1C` as the compound, how does the AC50 read?
**A.** 24.5 µM [falling, single point]

**Q.** With `CC1(C)OCCn2c1nc1c(N3CCOCC3)nc(-c3cnc(N)nc3)nc12` as the compound, how does the AC50 read?
**A.** 1.74 µM [falling, full curve]

**Q.** With `C1=C/COCc2cc(ccc2OCCN2CCCC2)Nc2nccc(n2)-c2cccc(c2)COC/1` as the compound, how does the AC50 read?
**A.** 5.49 µM [falling, full curve]

**Q.** With `CC/C(=C(/c1ccc(/C=C/C(=O)O)cc1)c1ccc2[nH]ncc2c1)c1ccc(F)cc1Cl` as the compound, how does the AC50 read?
**A.** 17.4 µM [falling, single point]

**Q.** For `CN(C)Cc1ccc(S(=O)(=O)n2ccc(/C=C/C(=O)NO)c2)cc1`, which AC50 is on record?
**A.** 17.4 µM [falling, partial curve]

**Q.** Which AC50 does the source give for `Cc1ccc(-c2ccc3ncc4c(c3n2)n(C2CCN(C(=O)[C@H](C)O)CC2)c(=O)n4C)cn1` here?
**A.** 0.275 µM [falling, full curve]

**Q.** With `Nc1nc(F)nc2c1ncn2[C@@H]1O[C@H](COP(=O)(O)O)[C@@H](O)[C@@H]1O` as the compound, how does the AC50 read?
**A.** 4.9 µM [falling, full curve] and 4.9 µM [falling, partial curve]

**Q.** With `CC(C)n1nc(-c2cc3cc(O)ccc3[nH]2)c2c(N)ncnc21` as the compound, how does the AC50 read?
**A.** 6.16 µM [falling, partial curve]

**Q.** Which AC50 does the source give for `O=c1[nH]c(=O)n([C@H]2C[C@H](O)[C@@H](CO)O2)cc1C(F)(F)F` here?
**A.** 5.49 µM [falling, partial curve]

**Q.** Which AC50 does the source give for `Nc1ccc(F)cc1NC(=O)c1ccc(CNC(=O)/C=C/c2cccnc2)cc1` here?
**A.** 7.76 µM [falling, partial curve]

**Q.** With `C[C@H]1COCCN1c1cc(C2(S(=O)(=O)C3CC3)CC2)nc(-c2ccc(NC(=S)NCCO)cc2)n1` as the compound, how does the AC50 read?
**A.** 0.195 µM [falling, full curve]

**Q.** Which AC50 does the source give for `Cc1cc(-c2cnn3c(NCC4CC(C)(O)C4)cc(Oc4cccnc4)nc23)ccc1C(=O)NC1CC1` (stereo unspecified) here?
**A.** 0.0692 µM [falling, full curve, poor fit]

**Q.** Which AC50 does the source give for `C[C@@H]1COCCN1c1cc(C2(S(C)(=N)=O)CC2)nc(-c2ccnc3[nH]ccc23)n1` (stereo partly specified) here?
**A.** 0.871 µM [falling, full curve]

**Q.** With `O=C(NO)c1cnc(N2C[C@H]3C[C@@H]2CN3c2cc(C(F)(F)F)ccn2)nc1` as the compound, how does the AC50 read?
**A.** 8.71 µM [falling, partial curve, poor fit]

**Q.** For `COc1ccc(S(=O)(=O)N(CCO)c2ccccc2CN(C)C/C=C/c2ccc(Cl)cc2)cc1`, which AC50 is on record?
**A.** 6.92 µM [falling, partial curve]

**Q.** For `N#C/C(=C1/Nc2ccccc2S1)c1ccnc(OCc2ccc(CN3CCOCC3)cc2)n1`, which AC50 is on record?
**A.** 19.5 µM [falling, single point]

**Q.** Which AC50 does the source give for `FC(F)(F)c1ccc(/C=C/c2nc(COc3ccc(CCCCn4ccnn4)cc3)co2)cc1` here?
**A.** 0.0174 µM [falling, full curve]

**Q.** For `COc1ccc(S(=O)(=O)N2CCc3cccc(-c4ccncc4)c32)cc1`, which AC50 is on record?
**A.** 0.692 µM [falling, full curve]

Same assay, conditions: PEO1/OlaR viability, CellTiter-Glo luminescence, 96 h; measured here: PEO4 viability

**Q.** For `CN1CCN(c2ccc(C(=O)Nc3n[nH]c4ccc(Cc5cc(F)cc(F)c5)cc34)c(NC3CCOCC3)c2)CC1`, which AC50 is on record?
**A.** 3.09 µM [falling, full curve]

**Q.** Which AC50 does the source give for `CN1CCC(c2c(O)cc(O)c3c(=O)cc(-c4ccccc4Cl)oc23)C1CO` (stereo unspecified) here?
**A.** 1.38 µM [falling, full curve]

**Q.** With `Cc1ccc(Nc2ncc3c(n2)N(C)C(=O)N(c2cc(NC(=O)c4cccc(C(F)(F)F)c4)ccc2C)C3)cn1` as the compound, how does the AC50 read?
**A.** 1.38 µM [falling, partial curve, poor fit]

**Q.** For `COc1cc(S(C)(=O)=O)ccc1Nc1nc2ccc(-c3ccc(NC(=O)[C@H](C)c4ccc(F)cc4)cc3)cn2n1`, which AC50 is on record?
**A.** 0.11 µM [falling, full curve]

**Q.** Which AC50 does the source give for `CO[C@H]1/C=C\C=C(\C)C(=O)NC2=CC(=O)C(NCCN(C)C)=C(C[C@@H](C)C[C@H](OC)[C@H](O)[C@@H](C)/C=C(/C)[C@@H]1OC(N)=O)C2=O` here?
**A.** 0.389 µM [falling, full curve, poor fit]

**Q.** With `COc1ccc(-c2cc(C(O)C3CCCCN3)c3ccccc3n2)cc1` (stereo unspecified) as the compound, how does the AC50 read?
**A.** 24.5 µM [falling, single point]

**Q.** Which AC50 does the source give for `CC(C)(O)CCc1ccc(OCc2cc(-c3cccc(OC(F)F)c3)c3ncccc3c2)cc1` here?
**A.** 19.5 µM [falling, single point]

**Q.** For `C[C@@H](OC[C@@]1(c2ccccc2)CC[C@]2(CCC(=O)N2)CN1)c1cc(C(F)(F)F)cc(C(F)(F)F)c1`, which AC50 is on record?
**A.** 13.8 µM [falling, single point]

**Q.** For `Nc1ccn([C@@H]2C(F)=C(CO)[C@@H](O)[C@H]2O)c(=O)n1`, which AC50 is on record?
**A.** 6.92 µM [falling, partial curve]

**Q.** Which AC50 does the source give for `CN1CCN(Cc2ccc(Nc3ncc(Cl)c(Nc4ccccc4S(=O)(=O)N(C)C)n3)cc2)CC1` here?
**A.** 0.071 µM [falling, full curve]

**Q.** For `C[C@H]1C[C@@H](n2c(Nc3ccc(OC(F)(F)F)cc3)nc3cc(CCC(=O)O)ccc32)CC(C)(C)C1`, which AC50 is on record?
**A.** 27.5 µM [falling, single point]

**Q.** With `Cc1cc(CS(=O)(=O)c2ccccc2)cc(OCc2ccc(CN3CCC[C@@H]3CO)cc2)c1` as the compound, how does the AC50 read?
**A.** 27.5 µM [falling, single point]

**Q.** Which AC50 does the source give for `O=c1sn(-c2cccc3ccccc23)c(=O)n1Cc1ccccc1` here?
**A.** 21.9 µM [falling, single point]

**Q.** With `Cc1nc2c(-c3cnc(N)nc3)nc(N3CCOCC3)nc2n1C(C)C` as the compound, how does the AC50 read?
**A.** 1.1 µM [falling, full curve]

**Q.** For `CNC(=O)Cn1cc(-c2ccc3c(c2)C(F)CC32NC(=O)N(CC(=O)N(Cc3ccc(F)cc3)C(C)C(F)(F)F)C2=O)cn1` (stereo unspecified), which AC50 is on record?
**A.** 0.138 µM [falling, full curve, poor fit]

**Q.** For `C=CC(=O)N[C@H]1CN(c2nc(Nc3cn(C)nc3OC)c3ncn(C)c3n2)C[C@@H]1F`, which AC50 is on record?
**A.** 19.5 µM [falling, partial curve]

**Q.** With `Cc1cc(N2CCOCC2)ccc1Nc1nc(NC2CCCCC2)c2[nH]cnc2n1` as the compound, how does the AC50 read?
**A.** 11 µM [falling, partial curve]

**Q.** Which AC50 does the source give for `CCn1nc(C2CCN(C(=O)CCO)CC2)nc1-c1cnc(N)c(-c2nnc(C(C)(C)C)o2)n1` here?
**A.** 19.5 µM [falling, partial curve]

**Q.** For `CC(C)(C)NC(=O)Nc1cccc(Nc2ncc(F)c(NC(C)(C)CO)n2)c1`, which AC50 is on record?
**A.** 6.92 µM [falling, partial curve, poor fit]

**Q.** For `COc1cc(OC)c(/C=C/S(=O)(=O)Cc2ccc(OC)c(NCC(=O)O)c2)c(OC)c1`, which AC50 is on record?
**A.** 0.0219 µM [falling, full curve]

**Q.** Which AC50 does the source give for `O=c1c(-n2ccnn2)c[nH]n1-c1cc(N2CCOCC2)ncn1` here?
**A.** 24.5 µM [falling, single point]

**Q.** For `CCCCNc1ncc2c(-c3ccc(CN4CCN(C)CC4)cc3)cn(C3CCC(O)CC3)c2n1` (stereo unspecified), which AC50 is on record?
**A.** 977 nM [falling, full curve] and 8.71 µM [falling, partial curve, poor fit]

**Q.** With `COc1cc(=C2C=c3ccccc3=N2)[nH]/c1=C/c1[nH]c(C)cc1C` as the compound, how does the AC50 read?
**A.** 27.5 µM [falling, single point]

**Q.** Which AC50 does the source give for `CC1(C)OCCn2c1nc1c(N3CCOCC3)nc(-c3cnc(N)nc3)nc12` here?
**A.** 2.19 µM [falling, full curve]

**Q.** Which AC50 does the source give for `C1=C/COCc2cc(ccc2OCCN2CCCC2)Nc2nccc(n2)-c2cccc(c2)COC/1` here?
**A.** 15.5 µM [falling, partial curve, poor fit]

**Q.** Which AC50 does the source give for `CC/C(=C(/c1ccc(/C=C/C(=O)O)cc1)c1ccc2[nH]ncc2c1)c1ccc(F)cc1Cl` here?
**A.** 19.5 µM [falling, single point]

**Q.** With `CN(C)Cc1ccc(S(=O)(=O)n2ccc(/C=C/C(=O)NO)c2)cc1` as the compound, how does the AC50 read?
**A.** 15.5 µM [falling, partial curve]

**Q.** Which AC50 does the source give for `Cc1ccc(-c2ccc3ncc4c(c3n2)n(C2CCN(C(=O)[C@H](C)O)CC2)c(=O)n4C)cn1` here?
**A.** 0.0776 µM [falling, full curve]

**Q.** For `Nc1nc(F)nc2c1ncn2[C@@H]1O[C@H](COP(=O)(O)O)[C@@H](O)[C@@H]1O`, which AC50 is on record?
**A.** 13.8 µM [falling, partial curve] and 5.49 µM [falling, full curve, poor fit]

**Q.** For `CC(C)n1nc(-c2cc3cc(O)ccc3[nH]2)c2c(N)ncnc21`, which AC50 is on record?
**A.** 1.1 µM [falling, full curve]

**Q.** With `O=c1[nH]c(=O)n([C@H]2C[C@H](O)[C@@H](CO)O2)cc1C(F)(F)F` as the compound, how does the AC50 read?
**A.** 4.9 µM [falling, partial curve, poor fit]

**Q.** With `Nc1ccc(F)cc1NC(=O)c1ccc(CNC(=O)/C=C/c2cccnc2)cc1` as the compound, how does the AC50 read?
**A.** 27.5 µM [falling, single point]

**Q.** For `C[C@H]1COCCN1c1cc(C2(S(=O)(=O)C3CC3)CC2)nc(-c2ccc(NC(=S)NCCO)cc2)n1`, which AC50 is on record?
**A.** 0.138 µM [falling, full curve]

**Q.** For `Cc1cc(-c2cnn3c(NCC4CC(C)(O)C4)cc(Oc4cccnc4)nc23)ccc1C(=O)NC1CC1` (stereo unspecified), which AC50 is on record?
**A.** 1.23 µM [falling, partial curve, poor fit]

**Q.** With `C[C@@H]1COCCN1c1cc(C2(S(C)(=N)=O)CC2)nc(-c2ccnc3[nH]ccc23)n1` (stereo partly specified) as the compound, how does the AC50 read?
**A.** 0.776 µM [falling, full curve]
